# According to the supplement of paper PMC11417369:
# Some of the results follow.
# Test system: PfHDP1 homeodomain (GST-tagged)
# Experiment: gcPBM binding intensity (ln(normalized median fluorescence intensity)); higher = stronger DNA binding
# In short: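 GST-tagged P. falciparum DNA-binding domains, expressed in E. coli (about 25 μg on average), were applied for 1 h to an Agilent 4 × 180k array of primer-extended double-stranded 36-bp intergenic genomic probes plus negative controls. The binding buffer was 1× PBS with 1% milk, 0.2 mg/ml BSA, 0.5% salmon testes DNA and 0.03% Triton X-100. Bound protein was detected with Alexa488 anti-GST antibody and scanned at 488 nm. Binding intensity is the highest Masliner-normalised natural-log median intensity across replicate spots of either probe orientation.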
row,Sequence,gcPBM binding intensity (ln)
1,TGATAAGTATACTAAAGTACATGAAAAATAACTTCC [XGTACX_site6908],6.22
2,TCCTAATGGTTTAATTGTACAAAAAAAAAAAATATA [XGTACX_site322],6.35
3,TGATTATAAAAGTAGGTGCTACAAAAATTACACATT [GTGCAC_site9530],6.22
4,ATAGATGTCTTCATATGTACATAAATTCAAGTATAT [XGTACX_site7492],6.54
5,GGTCTTTTTATGATATGTACTTATATAATATTATAT [XGTACX_site6458],7.34
6,ATGTAGAAGTAATGCACACATATGTATATATATATA [CACACA_site2494],10.5
7,AACAGCATGAAGTAAAGTACTAGTTTTATTTATTTA [XGTACX_site1116],6.08
8,TTTCTATAATATTCTACACACCAACAACAAACATAT [CACACA_site6409],7.3
9,TATAAATATACAAAGGTGCATAAAAAGTTATGTTTT [GTGCAC_site9832],9.08
10,AAAAAATTTTGAAATTGTACATATATAAAAAATATA [XGTACX_site2629],6.33
11,TTTAAATATATTAATACACACACGATATGTACAAAA [CACACA_site539],6.64
12,GAATAAATTGTATTGTGTACATATAAAAGCATCTAA [XGTACX_site8271],6.64
13,AAATAAAAATTACAAGCATGCATTTTCCTATTTGCA [TGCATGCA_site861],5.95
14,GTGTAAAAATTAAAGTGTACACATATATATATATAT [XGTACX_site2251],9.32
15,TTTCGAATTAAAGCATGTGAAAATTTTCAAAAAATA [XGTACX_negctrl_site577],6.74
16,GAATCACTAATTTTTTTACACACCACAATTTAATTT [CACACA_site8311],7.09
17,ACAAAACATAATTGTTGTACAAAAAGAATTATATAT [XGTACX_site8422],8.07
18,ATAATAATATAATATTCACACAATTGAAATAGTGTA [CACACA_site6083],6.39
19,ATTTTTTCTTATAAAAAAGAAAAAGAAAAAGAAAAA [CACACA_negctrl_site1216],6.43

row,Sequence,gcPBM binding intensity (ln)
1,TATATATTAAGATGCACACACAAGAAGTAATTATAA [CACACA_site5726],8.66
2,AAGTTAATGTTTTGCGCACACTTCTTTTTAATATAA [CACACA_site3938],8.41
3,TTCTTTATATAAACAAGTACATATAAAATACATATA [XGTACX_site8036],6.42
4,ACAGCTCTAGGACATGCATGTTATATAGAAAAAGAG [TGCATGCA_site703],7.21
5,AAATACATATTTAGAAGTACATTTATACATTTAATA [XGTACX_site8871],6.14
6,TTCATTAAAGTTATTACACACAGTTCTTCAACCAAA [CACACA_site7613],6.51
7,TGCCTATGACATGAATGTACATTAAAATTAAATAAA [XGTACX_site7126],6.47
8,GTTGGGTAATTCGTAACACACATAAAATATATATAA [CACACA_site3986],6.47
9,CACGCGCACCAACACACACACACACCCATATATATA [CACACA_site2204],8.31
10,CTGTACACTTAAACGGTGCAAAAAGAAAAAAAAGAA,10.6
11,GATGAGGACAGACACACACACATAAGTTGATACATA [CACACA_site7580],6.74
12,TTTTTTTCTTAAAGATGTACTTTTTAAAAACAATCT [XGTACX_site986],6.28
13,AGACATATTCTTTTTACACACTTGAATAAAAAATAT [CACACA_site1205],6.5
14,CATTTTATAAAAACAAGTACCCAACATATATATAAT [XGTACX_site5955],6.74
15,GTTTTTACTTTTATCTGTACATAATACTACCAATAT [XGTACX_site5414],7.06
16,TATATATAATATGAATGTACACAAAAAGGTAATACA [XGTACX_site6202],6.96
17,AAAAAAAAGAAATAGACACACATATATTTTTAAACA [CACACA_site3954],6.23
18,ATAATATTATGAACCTGTACATAATTTTTCTTTTCT [XGTACX_site3377],6.06
19,TATAATTTTTTTGAATTATATATATATATATATAAT [XGTACX_negctrl_site26],6.75

row,Sequence,gcPBM binding intensity (ln)
1,AGTATATTTCTAACTTGTACGAAATTAATAATTTAT [XGTACX_site6635],6.06
2,TTTGTTGTTGTGAAACGTACTCATAGGATGTTGTAT [XGTACX_site5716],6.41
3,ATATTTTCAATGTTCACACATACACAAAAAAAAAAA [CACACA_site6077],6.43
4,GCTTGGATATATTAATGTACTTATATATTATGTTGT [XGTACX_site3768],6.65
5,AAAATTTTTTTTATTTGTACACAATTCGATACATAA [XGTACX_site4804],6.76
6,TAAATAATCGCATAATGTACATATAATTTTTTTTTT [XGTACX_site4880],6.23
7,CCAATTCAAATATGCACACAAATTTGAAAACGATTA [CACACA_site3607],10.1
8,CTTTTGCCCAAAAAGGTACACACCACAATGTACATA [CACACA_site809],6.71
9,GTTAATATACATAAACGTACAGAATTATTATGAGTT [XGTACX_site5185],6.19
10,TTTTTTATTGTGATACGTATATTATTTTATGATAAA [CACACA_negctrl_site1591],6.61
11,TAAAAATGTAAACACACACACATAAATATATTTTAT [CACACA_site5397],6.92
12,ATATAGTAAAGTTATACACACATGAATTTTCCCATA [CACACA_site7457],6.51
13,ATATTTTAATTATAAAGTACATAAAAATATATAAAC [XGTACX_site6705],6.27
14,AAAGATGGAGTGATATGTACTGATATATTATTATAT [XGTACX_site6500],6.4
15,AAGCATAAAGTATATAGTACATATATATATATATAT [XGTACX_site2945],9.27
16,ATTAAAAAATCCATAGTGCACTACGATAGGTTCCGA [GTGCAC_site9463],10.3
17,ATTTTTTTTTTTTTTGAACACACATTATTAATTTTT [CACACA_site7990],6.57
18,ATATATTTTATATAGTGTACTTTAATTTTTTTTTTT [XGTACX_site5550],5.93
19,ATATATATATATGTTAGTACTTATATTGAAATGGTA [XGTACX_site1406],9.06
